Reference: paper PMC12136788
Some of the results follow.

B1: chr7:95297675:95299102:-|three_prime_utr|ENSG00000005421|control|control|control (ssRNA)
RNA: GGGAGUUCUACAGUCCGACGAUCACAGUGUUUCACAAAGCUCUUUACUGUGAGCUCUAACAGACCGAUUUGCACCCAUGCCAUAGAAACUGAGGCCAUUAUUUCAACCGCUUGCCAUAUUCCGAGGACCCAGUGUUCUUAGCUCAACAGAGGAUUGAGCAUCA
B2: chr1:235448940:235449205:-|3pUTR|ENSG00000162885|unk|FALSE|unique (ssRNA)
RNA: GGGAGUUCUACAGUCCGACGAUCAAUAGAGAAUUCCAUUAAAACUAGUCUUAUGACAGAUAUUAACUGUGUUCAGAUUUUAUUAGGCUAGCUAGUUUCUUUCUAUUUAAUAUUUAAAUCUUAUCAUGAAAUGCAGUGAUGAGCCAACAGAGGAUUGAGCAUCA
B3: chr1:23854467:23854568:-|CDS|ENSG00000179163|unk|total|mutant (ssRNA)
RNA: GGGAGUUCUACAGUCCGACGAUCAAGUCAAGUGGUUUUACUCCUCAUGACCAAAUAUUCUUUCCCUCCUCCGGAUGAGGUGGCCGUAAAUGACCGAUGGGGUCAGAACUGUUCCUGUCACCAUGGAGGAUACUAUAACUGUGACAACAGAGGAUUGAGCAUCA
B4: chr16:58599380:58599482:-|5pUTR|ENSG00000125107|unk|FALSE|unique (ssRNA)
RNA: GGGAGUUCUACAGUCCGACGAUCCAGAACAGAGUAAGACCCCUGGUAAAGAAGAACUGAAGAUAUUAUACAGAUACCAGAUAUAGCCUAAUUACAAAGAAAGCAUUAACCUGCCUCUGAGGUGACUAAAGGGGAAUAAUGGUGCAACAGAGGAUUGAGCAUCA
B5: chr6:39540002:39540221:-|CDS|ENSG00000164627|control|control|control (ssRNA)
RNA: GGGAGUUCUACAGUCCGACGAUCCCACUUGGCUGGCAUGGAUAGACGUGAAUUCAGACAGUCCCAGAGCCCACCCUUCCGCCUAGGAAACCCAGAAGAAGGUCAAAGAAUGCGACUAUCCUCAGCUCCCUCACAGGCCCAGGACAACAGAGGAUUGAGCAUCA
B6: chr10:128103381:128103482:-|CDS|ENSG00000148773|msi1|FALSE|unique (ssRNA)
RNA: GGGAGUUCUACAGUCCGACGAUCAACUGGCAGCAGGAGACGGCCAAGAGCACCCAGGGAAAGUGCCCAAGCCAUAGAAGACCUAGCUGGCUUCAAAGACCCAGCAGCAGGUCACACUGAAGAAUCAAUGACUGAUGACAAAACCAACAGAGGAUUGAGCAUCA
B7: chr3:100713726:100713879:+|CDS|ENSG00000114354|unk|FALSE|unique (ssRNA)
RNA: GGGAGUUCUACAGUCCGACGAUCACUUGGGGAGGAUAUUCGGCGAAUUCCUAUUCAUAAUGAAGAUAUUACUUAUGAUGAAUUAGUGCUAAUGAUGCAACGAGUUUUCAGAGGAAAACUUCUGAGUAAUGAUGAAGUAACAAUCAACAGAGGAUUGAGCAUCA
B8: chr1:235182574:235182675:-|CDS|ENSG00000054267|unk|total|mutant (ssRNA)
RNA: GGGAGUUCUACAGUCCGACGAUCUUUGACCAACAACAGAAAUGAUCUUAUUUCAAAGGAGGAACAGAACAGUUCAUCUUUGCCCGAAGAAAACAAAGUUCAUGCAGAUUUGGUAAUAUCCAAACCAGUGUCAAAAUCUCCAGACAACAGAGGAUUGAGCAUCA
B9: ENSG00000136451:be:win_1701|3pUTR|ENSG00000136451|bound_else_gene|NA|bound_elsewhere_windowed (ssRNA)
RNA: GGGAGUUCUACAGUCCGACGAUCUUUCUCCAAUUUGGCUGGGAUUAUUCAAAGUAGGGUGUGUAUGUAACUUAUCACUGGACCACUUUAGUUUAAUCAGAAAUUCCUUUUAGCUGACAACAUUGCUUAAACAGGAUAGUAGUUCAACAGAGGAUUGAGCAUCA
B10: chr14:106235063:106235368:-|CDS|ENSG00000211947|control|control|control (ssRNA)
RNA: GGGAGUUCUACAGUCCGACGAUCUGGGUCCGCCAGGCUCCAGGGAAGGGGCUGGAGUGGGUCUCAUCCAUUAGUAGUAGUAGUAGUUACAUAUACUACGCAGACUCAGUGAAGGGCCGAUUCACCAUCUCCAGAGACAACGCCCAACAGAGGAUUGAGCAUCA
B11: chr3:149369464:149369565:-|3pUTR|ENSG00000169908|msi1_unk|FALSE|overlapping (ssRNA)
RNA: GGGAGUUCUACAGUCCGACGAUCAAAUAACAUUCCAAUCACUAUUGUAUAUAUGUGCAUGUAUUUUUUAAAUUAAAGAUGUCUAGUUGCUUUUUAUAAGACCAAGAAGGAGAAAAUCCGACAACCUGGAAAGAUUUUUGUUUUCAACAGAGGAUUGAGCAUCA
B12: chr13:24435137:24435247:-|CDS|ENSG00000102699|unk|FALSE|unique (ssRNA)
RNA: GGGAGUUCUACAGUCCGACGAUCAAACCAACAGCAACUGAACCACUAUUUAAGAAAGUCAGUCCAUGGGAAACAUCUACUUCUAGCUUUUUUCCUAUUUUGGCUCCGGCCGUUGGUUCCUAUCUUCCCCCGACUGCCCGCGCUCAACAGAGGAUUGAGCAUCA
B13: chr12:32755127:32755228:-|CDS|ENSG00000139131|unk|FALSE|unique (ssRNA)
RNA: GGGAGUUCUACAGUCCGACGAUCCUUCUAUUACCUCUUCCAGCGUUAUGGAUGCAGGGUCCAGCUGGGCGGAUCUGAUCAACUAGGCAACAUCAUGUCCGGAUAUGAGUUCAUCAACAAGUAAGUGCCUUUAAACCUUGGGGACAACAGAGGAUUGAGCAUCA
B14: chr2:206311781:206311882:+|3pUTR|ENSG00000204186|unk|total|mutant (ssRNA)
RNA: GGGAGUUCUACAGUCCGACGAUCCCGUGUUCCGAGUCCUUUCAUUUUAAGAUUCAGAAACAGCCUUUGUCCAACAUUUUCUGCCGAAGAACUUCAUCUUAAUUUAUGUCACAAAAUAAUUCCGCACCGUAUACCGAAUUUUGUCAACAGAGGAUUGAGCAUCA
B15: chr6:125978377:125978478:+|3pUTR|ENSG00000111911|unk|FALSE|unique (ssRNA)
RNA: GGGAGUUCUACAGUCCGACGAUCAAUUUUGCCUCUAAUAACAUAAAGGGGGAAGAAACAUAAAGUGGUUCUCUUAAUAAAACUAGCAGAAAAUGUUGCUUUAUGGCAUGUUUUUGUAUCAAAGAGAAAUCAGAGGUUAAACUUCAACAGAGGAUUGAGCAUCA
B16: chr16:30351896:30351997:-|3pUTR|ENSG00000169217|unk|FALSE|unique (ssRNA)
RNA: GGGAGUUCUACAGUCCGACGAUCCUGGCACCCUCCACCUCCACGCCCCACCAGCAUUGCCUUACGCCUCCCUUGCCCCACGUUAGAUGGUUUCUUCCGGUUUUGCACUCUGGCUGCCCCUUGGAGUCUCCUGGGGAGCUGUAACAACAGAGGAUUGAGCAUCA
B17: chr17:19383441:19384461:-|three_prime_utr|ENSG00000166482|control|control|control (ssRNA)
RNA: GGGAGUUCUACAGUCCGACGAUCUACACCUGAAGUUACACUGCCAGCAGUUCCCCAGGCCUCUUCCGAGAGGCACAUGGUUCUAGCCUGGACCUGGCUGGGCUCCAUGAGAAUGAGUUGCCUCCAACCUGUCCCAACAGCUGACAACAGAGGAUUGAGCAUCA
B18: chr10:87753454:87753555:-|3pUTR|ENSG00000138138|msi1|FALSE|bound_elsewhere (ssRNA)
RNA: GGGAGUUCUACAGUCCGACGAUCCGUUUAAUGUGAAUUAUAUGUGAAUUUUUUUCAAAAUUUUACUAACCAGAAUUCUGUUAUAGGCACCUAACCACGCAGCAUGAGGAAAACGGCACAACACAAUCUUGAGGUGCCUUCUGACAACAGAGGAUUGAGCAUCA
B19: chr18:62902975:62903076:+|CDS|ENSG00000081913|unk|total|mutant (ssRNA)
RNA: GGGAGUUCUACAGUCCGACGAUCAGUGGACUUUCUACAGCAUGUUACUCAGCUUGACCUACGAGACAAUAAGCUUGGUGAUCCCGAUGCUAUGAUUUUCAACAACAUUGAAGUUUUACACUGUGAAAGGAAUCAACUGGUCACCAACAGAGGAUUGAGCAUCA
B20: chr12:293013:293114:-|CDS|ENSG00000073614|unk|FALSE|bound_elsewhere (ssRNA)
RNA: GGGAGUUCUACAGUCCGACGAUCACUAAAAGUGAAAGGAAAGGACUCUUCAGAGAAGAAACGGAAACGGAAGCUAGAAAAGGUAGAGCAACUUUUUGGAGAAGGAAAACAGAAGUCCAAGGAGUUAAAGAAAAUGGACAAACCCAACAGAGGAUUGAGCAUCA
B21: chr8:9779869:9779970:+|3pUTR|ENSG00000173273|msi1|FALSE|unique (ssRNA)
RNA: GGGAGUUCUACAGUCCGACGAUCGGAAUUUCUAGCUUUUCAAGCAGCAUAAGUAGAAUCAACAUUAGGAUGUUUUCAUGAAAUAGCAUCCUUAUACUUCUUUGAGCUUGAUGUUAGUGGCUAGACUGAUUUCCCUUUGCUCUCCAACAGAGGAUUGAGCAUCA
B22: ENSG00000142156:stop:overlap|stop_codon|ENSG00000142156|stop_codon|NA|stop_codon (ssRNA)
RNA: GGGAGUUCUACAGUCCGACGAUCACCAGGCCCUGCUCCGCGGUGUCUUCCACCAGACAGUCUCCAGGAAGGUGGCGCUGGGCUAGCCCACCCUGCACGCCGGCACCAAACCCUGUCCUCCCACCCCUCCCCACUCAUCACUAACAACAGAGGAUUGAGCAUCA

The binders below were run against MSI1 full-length (mouse, UniProt Q61474 1-362) (assay: nsRBNS (natural sequence RNA bind-n-seq); RBNS binding buffer (assumed for nsRBNS): 25 mM Tris pH 7.5, 150 mM KCl, 3 mM MgCl2, 0.01% Triton X-100, 500 ug/ml BSA, 20 U/ml SUPERase-In, 4 C; UNK is unkempt and MSI1 is Musashi-1; names of the RNAs are library labels; protein concentration not given here; high values mean tight binding).
Sequence of UniProt Q61474 (Q61474 whole entry): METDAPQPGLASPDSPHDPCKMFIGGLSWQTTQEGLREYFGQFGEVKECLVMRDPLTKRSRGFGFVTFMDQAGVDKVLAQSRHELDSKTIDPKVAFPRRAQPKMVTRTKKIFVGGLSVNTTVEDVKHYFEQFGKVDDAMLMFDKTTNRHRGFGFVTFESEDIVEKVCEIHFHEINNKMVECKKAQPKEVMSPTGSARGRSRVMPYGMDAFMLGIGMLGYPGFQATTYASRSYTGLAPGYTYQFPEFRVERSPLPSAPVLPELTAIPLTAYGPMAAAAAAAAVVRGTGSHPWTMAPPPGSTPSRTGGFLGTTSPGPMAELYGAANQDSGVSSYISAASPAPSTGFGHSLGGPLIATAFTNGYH

Binder | binding signal
B1 | 0.575 enrichment R
B2 | 13.3 enrichment R
B3 | 0.336 enrichment R
B4 | 2.04 enrichment R
B5 | 0.494 enrichment R
B6 | 0.443 enrichment R
B7 | 0.88 enrichment R
B8 | 0.165 enrichment R
B9 | 2.72 enrichment R
B10 | 2.08 enrichment R
B11 | 4.46 enrichment R
B12 | 0.454 enrichment R
B13 | 0.398 enrichment R
B14 | 0.669 enrichment R
B15 | 0.335 enrichment R
B16 | 0.706 enrichment R
B17 | 0.497 enrichment R
B18 | 0.398 enrichment R
B19 | 0.227 enrichment R
B20 | 0.889 enrichment R
B21 | 0.275 enrichment R
B22 | 0.343 enrichment R
